According to PubChem BioAssay AID602310 (National Center for Advancing Translational Sciences (NCATS), 2012):
Out of some 410,000 compounds screened, about 310 (0.076%) were called active. The shares of active, inactive and inconclusive entries below differ from those in the screen. The call rests on the fitted dose curve; in most records, active means well fitted curve in the direction sought with a large enough effect; inconclusive means small, poorly fitted or top-dose-only effect; inactive means flat fitted curve, though single readings scatter. Potencies beside an inconclusive call are fits to weak or partial responses and may not hold up.

Target: DNA dC->dU-editing enzyme APOBEC-3G (Homo sapiens) (UniProt Q9HC16)
UniProt Q9HC16, sequence (Q9HC16 whole entry, looked up): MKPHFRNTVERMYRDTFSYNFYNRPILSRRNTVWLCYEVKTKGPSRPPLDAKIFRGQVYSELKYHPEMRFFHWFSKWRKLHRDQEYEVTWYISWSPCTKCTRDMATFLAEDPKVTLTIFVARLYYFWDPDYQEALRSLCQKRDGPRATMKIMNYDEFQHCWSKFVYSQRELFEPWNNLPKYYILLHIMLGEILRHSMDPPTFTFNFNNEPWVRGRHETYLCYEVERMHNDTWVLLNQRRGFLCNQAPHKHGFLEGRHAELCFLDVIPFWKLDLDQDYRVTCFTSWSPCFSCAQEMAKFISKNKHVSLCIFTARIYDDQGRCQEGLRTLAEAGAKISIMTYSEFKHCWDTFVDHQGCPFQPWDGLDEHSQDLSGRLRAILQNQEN
Assay: qHTS for Inhibitors of Vif-A3G Interactions: qHTS; further: nearly all actives have a fitted effect of over 60% in size
Details: HeLa A3G-eYFP + Vif (tagged APOBEC3G with the HIV-1 protein that degrades it), YFP fluorescence, overnight; series mostly up to 46.1 µM
Summary of the method: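 Read-out is eYFP fluorescence (Ex 488/Em 500-530) from Vif-expressing HeLa A3G-eYFP cells; more signal means A3G escaped Vif-mediated degradation. Cells plated overnight, compound pinned in, incubated overnight at 37 deg C.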
Potency means the concentration at half of the fitted maximal effect; tags describe the fitted curve by direction and shape.

Which Potency does the source give for `Cc1ccc2[nH]c(=O)c(C3C(C#N)=C(N)Oc4c3ccc3cccnc43)cc2c1` (stereo not given) here?
The Potency was inconclusive: 2.82 µM [inhibitor, full curve, poor fit].

For `Cc1cccc2sc(N(CCCN(C)C)C(=O)CCc3ccccc3)nc12`, which Potency is on record?
The Potency was inconclusive: 35.5 µM [inhibitor, single point].

For `O=C(NCc1ccccc1)c1noc2c1CCCCC2`, which Potency is on record?
The Potency was inconclusive: 35.5 µM [inhibitor, partial curve, poor fit].

How did the Potency turn out when `CC(=NNC(=S)Nc1ccccc1Cl)c1ccccn1` was run?
The Potency was inconclusive: 35.5 µM [inhibitor, single point].

For `CCN(CC)c1ccc2cc(-c3nc4sc5c(c4c(=O)[nH]3)CCC(C(C)(C)C)C5)c(=O)oc2c1` (stereo not given), which Potency is on record?
Its Potency is active: 10 µM.

`COC(=O)c1ccc([C@H]2CC(=O)O2)cc1` was tested. Which Potency did it give?
Its Potency is “inactive”.

How did the Potency turn out when `COC(=O)C1[C@H]2SC(C)(C)C(C(=O)OC)N2C(=O)N1Cc1ccccc1` (stereo not given in full) was run?
The Potency was “inactive”.

How did the Potency turn out when `CCOc1ccc(NC(=O)c2ccc(Br)o2)c([N+](=O)[O-])c1` was run?
The Potency was inconclusive: 35.5 µM [inhibitor, partial curve, poor fit].

How did the Potency turn out when `O=C1c2cccc3c(N4CCCCC4)ccc(c23)C(=O)N1CCO` was run?
The Potency was inconclusive: 17.8 µM [inhibitor, partial curve, poor fit].

`CC(=O)c1cccc(NC(=O)c2sc3nc4n(c(=O)c3c2C)CCCC4)c1` was tested. Which Potency did it give?
The Potency was “inactive”.

Which Potency does the source give for `O=C(N/N=C/c1sc(=O)n(Cc2ccc(Br)cc2)c1Cl)c1ccco1` here?
Its Potency is inconclusive: 15.8 µM [inhibitor, partial curve, poor fit].

How did the Potency turn out when `CCN1CCc2c(sc(NC(=S)NC(=O)c3cccc(F)c3)c2C(N)=O)C1` was run?
Its Potency is “inactive”.

For `CCOC(=O)c1c(-c2ccccc2)csc1NC(=O)C(C)NCCCN1CCOCC1` (stereo not given), which Potency is on record?
Its Potency is “inactive”.

With `COc1ccccc1NC1=NC2(CCCC2)N=C(N)N1` as the molecule, how does the Potency read?
The Potency was inconclusive: 15.8 µM [inhibitor, single point].

With `COC(=O)c1ccc2c(c1)C(C)(C)C(/C=C/c1ccc(OC)c(OC)c1OC)=[N+]2C` as the molecule, how does the Potency read?
Its Potency is inconclusive: 35.5 µM [inhibitor, single point].

`Cc1cccc(N2C(=O)C(Cl)=C(N3CCOCC3)C2=O)c1` was tested. Which Potency did it give?
Its Potency is “inactive”.

Which Potency does the source give for `C=CCn1c(SCC(=O)Nc2sccc2C(N)=O)nc2ccc(Cl)cc2c1=O` here?
Its Potency is inconclusive: 11.2 µM [inhibitor, partial curve, poor fit].

How did the Potency turn out when `CN1CCN(c2ccc(Cl)cc2NC(=O)/C=C/c2ccc(F)cc2)CC1` was run?
The Potency was “inactive”.

For `C=CCNc1oc(-c2ccco2)nc1S(=O)(=O)c1ccccc1`, which Potency is on record?
The Potency was “inactive”.

With `COC(=O)c1ccc([C@@H]2Nc3c(OC)ccc(C)c3[C@@H]3C=CC[C@@H]32)cc1` as the molecule, how does the Potency read?
Its Potency is “inactive”.

`Nc1c(C(=O)Nc2ccc(F)cc2)sc2nc(-c3cccs3)cc(C(F)(F)F)c12` was tested. Which Potency did it give?
The Potency was inconclusive: 1 µM [inhibitor, full curve, poor fit].

How did the Potency turn out when `Cc1cc(/C=C2\C=Cc3ccccc32)cc(C)c1N` was run?
The Potency was “inactive”.

Which Potency does the source give for `CCn1c(/C=C2/C(=O)N(C)c3ccccc32)nc2ccccc2c1=O` here?
The Potency was “inactive”.

For `Clc1cccc(Cl)c1/C=N\Nc1nccs1`, which Potency is on record?
Its Potency is inconclusive: 35.5 µM [inhibitor, single point].

`Cc1cc(C(=O)N/N=C/c2ccc3ccccc3c2)n[nH]1` was tested. Which Potency did it give?
Its Potency is inconclusive: 2.24 µM [inhibitor, full curve, poor fit].

Which Potency does the source give for `COC(=O)c1cc2oc(C)cc2n1Cc1ccccc1Cl` here?
Its Potency is inconclusive: 14.1 µM [inhibitor, single point].

How did the Potency turn out when `Cc1ccc(NC(=S)N(CCCN2CCCC2)Cc2cccn2Cc2ccc(Cl)cc2)cc1C` was run?
The Potency was “inactive”.

`COc1ccc2[nH]c3c(c2c1)CCNC3c1ccc([N+](=O)[O-])o1` (stereo not given) was tested. Which Potency did it give?
Its Potency is inconclusive: 25.1 µM [inhibitor, single point].

`O/C(=C\c1ccc2ccccc2n1)c1ccc(O)cc1O` was tested. Which Potency did it give?
The Potency was inconclusive: 14.1 µM [inhibitor, single point].

For `Nc1ccc(S(=O)(=O)c2cc(O)c3ccccc3c2O)cc1`, which Potency is on record?
Its Potency is inconclusive: 28.2 µM [inhibitor, single point].

How did the Potency turn out when `COc1ccccc1C(=O)NNC1=C(C(=O)C(F)(F)F)CCC1` was run?
Its Potency is inconclusive: 10 µM [inhibitor, partial curve].

How did the Potency turn out when `CCc1cc(=O)oc2c3c(cc(OCC(=O)NCCCC(=O)O)c12)OC(C)(C)CC3` was run?
Its Potency is “inactive”.

`Cc1cc(C)c2c(N)c(C(=O)Nc3ccccc3F)sc2n1` was tested. Which Potency did it give?
Its Potency is “inactive”.

`COc1ccc(N=c2oc3ccc(OC)cc3cc2-c2nc3ccccc3[nH]2)cc1` was tested. Which Potency did it give?
Its Potency is inconclusive: 12.6 µM [inhibitor, partial curve, poor fit].

With `C[C@@H]1C[C@H](Nc2ccccc2)c2ccccc2N1C(=O)c1cccnc1` as the molecule, how does the Potency read?
The Potency was inconclusive: 28.2 µM [inhibitor, single point].

For `O=C(CCl)Nc1ccc(Sc2ccc(NC(=O)CCl)cc2)cc1`, which Potency is on record?
Its Potency is inconclusive: 25.1 µM [inhibitor, single point].

For `COC(=O)c1ccc(/C=C(\C#N)c2ccccn2)cc1`, which Potency is on record?
Its Potency is “inactive”.

How did the Potency turn out when `CCC(C)C(NC(=O)c1ccccc1NC(=O)c1ccc(OC)cc1)C(=O)NCc1ccco1` (stereo not given) was run?
The Potency was inconclusive: 35.5 µM [inhibitor, single point].

`COc1ccc(Cc2nnc3n2N=C(c2cc4ccccc4o2)CS3)cc1OC` was tested. Which Potency did it give?
The Potency was inconclusive: 22.4 µM [inhibitor, single point].

How did the Potency turn out when `CCCCc1ccc(-n2c(Cc3cccs3)n[nH]c2=S)cc1` was run?
Its Potency is inconclusive: 5.62 µM [inhibitor, single point].

Which Potency does the source give for `Cc1ccc(CNC(=O)Cn2c(SCC(=O)Nc3ccc(F)cc3)nc3ccccc32)cc1` here?
Its Potency is inconclusive: 25.1 µM [inhibitor, single point].

Which Potency does the source give for `CC(C)Oc1ccc(C(=O)/C=C2/C(=O)Nc3ccccc32)cc1` here?
Its Potency is inconclusive: 35.5 µM [inhibitor, single point].

For `CCCC(=O)Nc1ccc2nn(-c3ccc(OC)cc3)nc2c1`, which Potency is on record?
The Potency was “inactive”.

For `COc1cc2c(cc1OC)/C(=C/C(=O)c1ccc(C)cc1)NCC2`, which Potency is on record?
Its Potency is “inactive”.

Which Potency does the source give for `Clc1ccc(C[n+]2csc3ccccc32)cc1` here?
Its Potency is “inactive”.

For `COc1ccc(OC)c(NC(=O)CSc2nc3scc(C)c3c(=O)[nH]2)c1`, which Potency is on record?
Its Potency is inconclusive: 12.6 µM [inhibitor, partial curve, poor fit].

Which Potency does the source give for `Cc1nc2ccc(NC(=O)c3ccc(Cl)c([N+](=O)[O-])c3)cc2s1` here?
The Potency was “inactive”.

How did the Potency turn out when `Cc1ccc(C2c3[nH]c4ccccc4c3C[C@H]3C(=O)N(c4ccccc4C(=O)N4CCC[C@H]4C(=O)O)C(=O)N23)cc1` (stereo not given in full) was run?
The Potency was “inactive”.

For `O=C(Nc1ccc(Cl)cn1)c1ccccc1[N+](=O)[O-]`, which Potency is on record?
Its Potency is inconclusive: 35.5 µM [inhibitor, single point].

With `COc1ccc(S(=O)(=O)NCc2ccccn2)cc1NC(=O)c1ccc(C)cc1` as the molecule, how does the Potency read?
Its Potency is inconclusive: 7.94 µM [inhibitor, partial curve].

For `CC[C@]1(c2ccccc2C)ON(c2ccccc2C(F)(F)F)C1=O`, which Potency is on record?
The Potency was “inactive”.

Which Potency does the source give for `COc1cccc(Nc2nc3ccccc3n3nnnc23)c1` here?
The Potency was inconclusive: 25.1 µM [inhibitor, single point].

`Cc1cccc(NC(=S)N2CCCC2)c1` was tested. Which Potency did it give?
Its Potency is “inactive”.

How did the Potency turn out when `Cc1cc(C)c2cc(CN(CC3CCCO3)C(=S)NCc3ccco3)c(=O)[nH]c2c1` (stereo not given) was run?
The Potency was “inactive”.

For `COC(=O)C1=CN(Cc2ccccc2)C=C(C(=O)OC)C1c1ccc(OC)c(OC)c1`, which Potency is on record?
Its Potency is “inactive”.

How did the Potency turn out when `CCn1cc(CNC(=O)c2cc(-c3ccc(C)cc3)nc3ccc(Br)cc23)c(C)n1` was run?
The Potency was “inactive”.

With `C#CCOCCOCCOCCNc1nc(N2CCN(C(=O)CCCCCCCCCCNC(=O)Cn3cc(C[C@@H](C)O)nn3)CC2)nc(N2CCN(C(=O)CCCCCCCCCCNC(=O)[C@@H]([C@H](C)CC)n3cc(CCCCCN)nn3)CC2)n1` as the molecule, how does the Potency read?
The Potency was inconclusive: 35.5 µM [inhibitor, single point].

How did the Potency turn out when `O=C(Nc1cccnc1)c1cc2c(s1)-c1ccccc1OC2` was run?
Its Potency is inconclusive: 14.1 µM [inhibitor, single point].

`CCN(CC)c1ccc2cc(S(=O)(=O)c3ccc(Cl)cc3)c(=O)oc2c1` was tested. Which Potency did it give?
The Potency was inconclusive: 35.5 µM [inhibitor, single point].

For `Cc1ccc(-c2cn3c(n2)sc2cc(C(=O)NCCCN4CCCCCC4)ccc23)cc1`, which Potency is on record?
Its Potency is inconclusive: 15.8 µM [inhibitor, single point].

`Fc1ccccc1/C=N/NC(=S)Nc1ccc(Cl)cc1Cl` was tested. Which Potency did it give?
Its Potency is inconclusive: 1 µM [inhibitor, full curve, poor fit].

With `O=C1c2ccccc2-c2onc3c(N4CCN(C5CCCCC5)CC4)cc(NCCO)c1c23` as the molecule, how does the Potency read?
Its Potency is inconclusive: 5.62 µM [inhibitor, single point].

How did the Potency turn out when `Nc1ccc(S(=O)(=O)Nc2nc(-c3ccccc3)cc(-c3ccccc3O)n2)cc1` was run?
The Potency was inconclusive: 17.8 µM [inhibitor, single point].

Which Potency does the source give for `Cc1cc(C)cc(OCCSc2nc3ccc(NC(=O)c4cccs4)cc3s2)c1` here?
The Potency was inconclusive: 25.1 µM [inhibitor, single point].

`CC(=O)Nc1cccc(-c2ccnc3c2CC(C)(C(=O)NCc2ccco2)O3)c1` (stereo not given) was tested. Which Potency did it give?
Its Potency is inconclusive: 1.58 µM [inhibitor, full curve, poor fit].

With `Cc1cccc(/C=C/c2nc3ccccc3c(=O)[nH]2)c1` as the molecule, how does the Potency read?
The Potency was “inactive”.

For `COc1ccc(/C=N\NC(=O)c2ccccc2Cl)cc1COc1c(F)c(F)c(F)c(F)c1F`, which Potency is on record?
The Potency was inconclusive: 20 µM [inhibitor, single point].

For `C/C=C(/C(=C/C)c1ccc(O)cc1)c1ccc(O)cc1`, which Potency is on record?
Its Potency is inconclusive: 7.94 µM [inhibitor, partial curve].

How did the Potency turn out when `COc1ccc2nc(N(Cc3ccccc3)C(=O)CCNC(C)=O)sc2c1` was run?
The Potency was inconclusive: 25.1 µM [inhibitor, single point].

`NS(=O)(=O)c1ccc(Nc2nc(-c3ccc(F)cc3)cs2)cc1` was tested. Which Potency did it give?
Its Potency is inconclusive: 35.5 µM [inhibitor, single point].
